In PubChem BioAssay (NCI):
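48-hour exposure; five concentrations; linearly interpolated endpoints. Abbreviation: GI50, concentration required for 50% inhibition of growth.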 The source holds more than one record for some entries. This list holds those alone. The source may hold further records. For some assays here: The tests behind the records often covered other concentration ranges, which the source does not state; a value can be the end of its range. Marks in square brackets tell the records apart. The letters are not those of the source and start again with each entry. For some assays here: Values given together are repeats in other runs, samples, wells, individuals or studies.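 At the TGI there is no net growth.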

How the values were obtained:
Experiment in all cases: NCI anticancer screen, dose series, 48 h
[1] = test system: TK-10 renal
[2] = test system: NCI-H460 lung
[3] = test system: XF 498 CNS
[4] = test system: SK-MEL-5 melanoma
[5] = test system: HL-60(TB) leukemia
[6] = test system: UACC-62 melanoma
[7] = test system: ACHN renal
[8] = test system: DMS 273 small cell lung
[9] = test system: NCI-H23 lung
[10] = test system: KM20L2 colon
[11] = test system: CCRF-CEM leukemia
[12] = test system: HOP-18 NSCLC
[13] = test system: MALME-3M melanoma
[14] = test system: HT29 colon
[15] = test system: OVCAR-5 ovarian
[16] = test system: KM12 colon
[17] = test system: RXF 393 renal
[18] = test system: NCI-H226 lung
[19] = test system: RPMI-8226 leukemia
[20] = test system: LOX IMVI melanoma
[21] = test system: HCC-2998 colon
[22] = test system: HCT-116 colon

COC(C(=O)C(O)C(C)O)C1Cc2cc3cc(OC4CC(OC(C)=O)C(OC5CC(O)C(OC)C(C)O5)C(C)O4)cc(O)c3c(O)c2C(=O)C1OC1CC(OC2CC(OC3CC(C)(O)C(OC(=O)C(C)C)C(C)O3)C(O)C(C)O2)C(O)C(C)O1 (stereo not given)
GI50 [1]: 334 nM [sample A, mean of 5 tests] and 25.1 nM [sample B, 1 test]
TGI [2]: 488 nM, 218 nM [sample A] and 116 nM, 834 nM [sample B]
TGI [3]: 18.7 nM, 10.8 nM [sample A] and 5.35 nM, < 22.8 nM [sample B]
TGI [4]: 67.1 nM, 11.2 nM [sample A] and 4.79 nM, 18 nM [sample B]
GI50 [5]: 11.1 nM [sample A, mean of 3 tests] and 45.9 nM [sample A, mean of 6 tests] and 2.35 nM [sample B, 1 test]
TGI [5]: 110 nM [sample A, mean of 3 tests] and 159 nM [sample A, mean of 6 tests] and 15.7 nM [sample B, 1 test] and 14.6 nM [sample B, mean of 4 tests]
TGI [6]: 39 nM, 12.1 nM [sample A] and 3.64 nM [sample B]
GI50 [7]: 333 nM [sample A, mean of 6 tests] and 25.1 nM [sample B, 1 test]
GI50 [8]: 7.5 nM [sample A, mean of 2 tests] and 0.713 nM [sample B, 1 test]
TGI [8]: 101 nM, 8.36 nM [sample A] and 4.03 nM, 23.6 nM [sample B]
GI50 [9]: 11.4 nM [sample A, mean of 3 tests] and 0.908 nM [sample B, 1 test]
TGI [9]: 40.2 nM, 392 nM [sample A] and 3.51 nM, 178 nM [sample B]
GI50 [10]: 0.75 nM [sample A, 1 test] and 40.1 nM [sample A, mean of 3 tests] and 45 nM [sample A, mean of 5 tests] and 16.1 nM [sample B, 1 test] and 17.1 nM [sample B, mean of 5 tests]
TGI [10]: 331 nM [sample A, mean of 3 tests] and 1.3 µM [sample A, mean of 5 tests] and 110 nM [sample B, 1 test] and 728 nM [sample B, mean of 5 tests]
GI50 [11]: 16.2 nM [sample A, mean of 3 tests] and 35.1 nM [sample A, mean of 5 tests] and 0.86 nM [sample B, 1 test]
TGI [11]: 261 nM [sample A, mean of 3 tests] and 230 nM [sample A, mean of 5 tests] and 14.6 nM [sample B, 1 test] and 264 nM [sample B, mean of 4 tests]
GI50 [12]: 14.1 nM [sample A, mean of 2 tests] and 0.599 nM [sample B, 1 test]
TGI [12]: 94 nM [sample A, mean of 2 tests] and 4.43 nM [sample B, 1 test]
GI50 [13]: 9.13 nM [sample A, mean of 4 tests] and 0.2 nM, 1.78 nM [sample B, 1 test]
TGI [13]: 66.3 nM, 11.5 nM [sample A] and 6.56 nM, < 63.1 nM [sample B]
GI50 [14]: 11.9 nM [sample A, mean of 3 tests] and 37.1 nM [sample A, mean of 6 tests] and 2.14 nM [sample B, 1 test] and < 18.2 nM [sample B, mean of 4 tests]
GI50 [15]: 67 nM [sample A, mean of 4 tests] and 32.7 nM [sample A, mean of 5 tests] and 2.62 nM [sample B, 1 test] and < 215 nM [sample B, mean of 3 tests]
TGI [15]: 146 nM [sample A, mean of 4 tests] and 161 nM [sample A, mean of 5 tests] and 28.7 nM [sample B, 1 test] and 379 nM [sample B, mean of 3 tests]
GI50 [16]: 10.1 nM [sample A, mean of 4 tests] and 24.5 nM [sample A, mean of 5 tests] and 2.21 nM [sample B, 1 test]
TGI [16]: 14.1 nM [sample A, mean of 4 tests] and 371 nM [sample A, mean of 5 tests] and < 216 nM [sample B, mean of 3 tests]
GI50 [17]: 10.1 nM [sample A, mean of 3 tests] and 40.8 nM [sample A, mean of 5 tests] and 13.5 nM [sample B, 1 test] and < 11.7 nM [sample B, mean of 3 tests]
TGI [17]: 13.8 nM [sample A, mean of 3 tests] and 118 nM [sample A, mean of 5 tests] and 29.6 nM [sample B, 1 test] and 18.8 nM [sample B, mean of 3 tests]
GI50 [18]: 39 nM [sample A, mean of 5 tests] and 0.0877 nM, 14.8 nM [sample B, 1 test]
GI50 [19]: 40.3 nM [sample A, mean of 5 tests] and 0.613 nM [sample B, 1 test]
GI50 [20]: 0.261 nM [1 test] and 34 nM, 58.5 nM [mean of 2 tests]
TGI [20]: 134 nM, 476 nM [sample A, mean of 2 tests] and > 41.7 µM [sample B, mean of 2 tests]
GI50 [21]: 10.2 nM [sample A, mean of 2 tests] and 52 nM [sample A, mean of 4 tests] and 11.7 nM [sample B, 1 test] and 13.8 nM [sample B, mean of 2 tests]
TGI [21]: 26.6 nM [sample A, mean of 2 tests] and 178 nM [sample A, mean of 4 tests] and 33 nM [sample B, 1 test] and 41.9 nM [sample B, mean of 2 tests]
GI50 [22]: 13.6 nM [sample A, mean of 2 tests] and 0.609 nM, 1.44 nM [sample B, 1 test]
TGI [22]: 482 nM, 75 µM [sample A] and > 48 µM [sample B]
